Reference: the supplement of paper PMC4604168 (melanoma cell lines)
This is one part of the list. Repeats are few or missing, and single values can be far off.

How the values were obtained:
Assay in all cases: cell count relative to DMSO control; melanoma cells; higher = more viable cells
Details in all cases: library dose: standard library concentration; 72 h
A101D = test system: A101D
A2058 = test system: A2058
A375 = test system: A375
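Note: cells treated in 1,536-well plates, then fixed and DAPI-stained, with nuclei counted from automated high-throughput microscope images.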

| SMILES | cell count (A101D) | cell count (A2058) | cell count (A375) |
| --- | --- | --- | --- |
| N#CC[C@H](C1CCCC1)n1cc(-c2ncnc3[nH]ccc23)cn1 [ruxolitinib] + C=C(c1ccc(C(=O)O)cc1)c1cc2c(cc1C)C(C)(C)CCC2(C)C [Bexarotene] (first compound 5 µM, partner dose 10 µM) | 78.3% | 98% | 129% |
| CC[C@]1(O)C[C@H]2CN(CCc3c([nH]c4ccccc34)[C@@](C(=O)OC)(c3cc4c(cc3OC)N(C=O)[C@H]3[C@@](O)(C(=O)OC)[C@H](OC(C)=O)[C@]5(CC)C=CCN6CC[C@]43[C@@H]65)C2)C1 [vincristine] + Cc1nc(Nc2ncc(C(=O)Nc3c(C)cccc3Cl)s2)cc(N2CCN(CCO)CC2)n1 [dasatanib] (first compound 0.0005 µM, partner dose 0.02 µM) | 44.6% | 26% | 62.8% |
| N#CC[C@H](C1CCCC1)n1cc(-c2ncnc3[nH]ccc23)cn1 [ruxolitinib] + CC(C)(C)c1cnc(CSc2cnc(NC(=O)C3CCNCC3)s2)o1 [SNS-032] (first compound 5 µM, partner dose 0.05 µM) | 88.3% | 64.3% | 121% |
| N#CC[C@H](C1CCCC1)n1cc(-c2ncnc3[nH]ccc23)cn1 [ruxolitinib] + Cn1cncc1[C@@](N)(c1ccc(Cl)cc1)c1ccc2c(c1)c(-c1cccc(Cl)c1)cc(=O)n2C [tipifarnib] (first compound 5 µM, partner dose 0.05 µM) | 107% | 53.4% | 147% |
| Cc1cc(Nc2cc(N3CCN(C)CC3)nc(Sc3ccc(NC(=O)C4CC4)cc3)n2)n[nH]1 [Tozasertib] + NCC(=O)Nc1ccc(-n2nc(C(F)(F)F)cc2-c2ccc3c(ccc4ccccc43)c2)cc1 [OSU03012] (first compound 0.03 µM, partner dose 5 µM) | 85.4% | 84.5% | 54.8% |
| CC[C@]1(O)C[C@H]2CN(CCc3c([nH]c4ccccc34)[C@@](C(=O)OC)(c3cc4c(cc3OC)N(C=O)[C@H]3[C@@](O)(C(=O)OC)[C@H](OC(C)=O)[C@]5(CC)C=CCN6CC[C@]43[C@@H]65)C2)C1 [vincristine] + CC(C)(C)c1cnc(CSc2cnc(NC(=O)C3CCNCC3)s2)o1 [SNS-032] (first compound 0.0005 µM, partner dose 0.05 µM) | 67.2% | 27.8% | 73.8% |
| CC[C@]1(O)C[C@H]2CN(CCc3c([nH]c4ccccc34)[C@@](C(=O)OC)(c3cc4c(cc3OC)N(C=O)[C@H]3[C@@](O)(C(=O)OC)[C@H](OC(C)=O)[C@]5(CC)C=CCN6CC[C@]43[C@@H]65)C2)C1 [vincristine] + C=C(c1ccc(C(=O)O)cc1)c1cc2c(cc1C)C(C)(C)CCC2(C)C [Bexarotene] (first compound 0.0005 µM, partner dose 10 µM) | 57.4% | 119% | 79.5% |
| N#CC[C@H](C1CCCC1)n1cc(-c2ncnc3[nH]ccc23)cn1 [ruxolitinib] + Cn1cnc2c(F)c(Nc3ccc(Br)cc3Cl)c(C(=O)NOCCO)cc21 [selumetinib] (first compound 5 µM, partner dose 0.075 µM) | 82.8% | 91.3% | 173% |
| N#CC[C@H](C1CCCC1)n1cc(-c2ncnc3[nH]ccc23)cn1 [ruxolitinib] + CCN(CC)CCNC(=O)c1c(C)[nH]c(/C=C2\C(=O)Nc3ccc(F)cc32)c1C [sunitinib] (first compound 5 µM, partner dose 2 µM) | 62.2% | 57.2% | 87% |
| CC[C@]1(O)C[C@H]2CN(CCc3c([nH]c4ccccc34)[C@@](C(=O)OC)(c3cc4c(cc3OC)N(C=O)[C@H]3[C@@](O)(C(=O)OC)[C@H](OC(C)=O)[C@]5(CC)C=CCN6CC[C@]43[C@@H]65)C2)C1 [vincristine] + O=C(O)c1ccc(-c2c[nH]c3ncc(-c4ccccc4)cc23)cc1C1CCCC1 [GSK650394] (first compound 0.0005 µM, partner dose 0.8 µM) | 76.5% | 114% | 94.4% |
| Cc1cc(Nc2cc(N3CCN(C)CC3)nc(Sc3ccc(NC(=O)C4CC4)cc3)n2)n[nH]1 [Tozasertib] + Cc1cn(-c2cc(NC(=O)c3ccc(C)c(Nc4nccc(-c5cccnc5)n4)c3)cc(C(F)(F)F)c2)cn1 [nilotinib] (first compound 0.03 µM, partner dose 1 µM) | 89.7% | 90.9% | 138% |
| Cc1cc(Nc2cc(N3CCN(C)CC3)nc(Sc3ccc(NC(=O)C4CC4)cc3)n2)n[nH]1 [Tozasertib] + O=C(O)c1ccc2c(c1)nc(Nc1cccc(Cl)c1)c1ccncc12 [CX4945] (first compound 0.03 µM, partner dose 2 µM) | 76.4% | 67.9% | 87.5% |
| Cc1cc(Nc2cc(N3CCN(C)CC3)nc(Sc3ccc(NC(=O)C4CC4)cc3)n2)n[nH]1 [Tozasertib] + CC1(C)NC(=O)N(c2ccc([N+](=O)[O-])c(C(F)(F)F)c2)C1=O [nilutamide] (first compound 0.03 µM, partner dose 5 µM) | 90.4% | 96.5% | 101% |
| N#CC[C@H](C1CCCC1)n1cc(-c2ncnc3[nH]ccc23)cn1 [ruxolitinib] + CC[C@]1(O)C[C@H]2CN(CCc3c([nH]c4ccccc34)[C@@](C(=O)OC)(c3cc4c(cc3OC)N(C=O)[C@H]3[C@@](O)(C(=O)OC)[C@H](OC(C)=O)[C@]5(CC)C=CCN6CC[C@]43[C@@H]65)C2)C1 [vincristine] (first compound 5 µM, partner dose 0.0005 µM) | 69.9% | 59.5% | 122% |
| Cc1cc(Nc2cc(N3CCN(C)CC3)nc(Sc3ccc(NC(=O)C4CC4)cc3)n2)n[nH]1 [Tozasertib] + COc1cc([C@@H]2c3cc4c(cc3[C@@H](O[C@@H]3O[C@@H]5CO[C@@H](C)O[C@H]5[C@H](O)[C@H]3O)[C@H]3COC(=O)[C@H]23)OCO4)cc(OC)c1O [etoposide] (first compound 0.03 µM, partner dose 0.1 µM) | 67.2% | 64.2% | 63.9% |
| N#CC[C@H](C1CCCC1)n1cc(-c2ncnc3[nH]ccc23)cn1 [ruxolitinib] + C=CCn1c(=O)c2cnc(Nc3ccc(N4CCN(C)CC4)cc3)nc2n1-c1cccc(C(C)(C)O)n1 [MK1775] (first compound 5 µM, partner dose 0.1 µM) | 66.9% | 68.7% | 71.1% |
| CC[C@]1(O)C[C@H]2CN(CCc3c([nH]c4ccccc34)[C@@](C(=O)OC)(c3cc4c(cc3OC)N(C=O)[C@H]3[C@@](O)(C(=O)OC)[C@H](OC(C)=O)[C@]5(CC)C=CCN6CC[C@]43[C@@H]65)C2)C1 [vincristine] + COc1cc2c(Oc3ccc4[nH]c(C)cc4c3F)ncnc2cc1OCCCN1CCCC1 [cediranib] (first compound 0.0005 µM, partner dose 2 µM) | 57.8% | 31% | 98.6% |
| CC[C@]1(O)C[C@H]2CN(CCc3c([nH]c4ccccc34)[C@@](C(=O)OC)(c3cc4c(cc3OC)N(C=O)[C@H]3[C@@](O)(C(=O)OC)[C@H](OC(C)=O)[C@]5(CC)C=CCN6CC[C@]43[C@@H]65)C2)C1 [vincristine] + C=CCn1c(=O)c2cnc(Nc3ccc(N4CCN(C)CC4)cc3)nc2n1-c1cccc(C(C)(C)O)n1 [MK1775] (first compound 0.0005 µM, partner dose 0.1 µM) | 39.3% | 12.1% | 55.9% |
| Cc1cc(Nc2cc(N3CCN(C)CC3)nc(Sc3ccc(NC(=O)C4CC4)cc3)n2)n[nH]1 [Tozasertib] + CCCCCCCCc1ccc(CCC(N)(CO)CO)cc1 [fingolimod] (first compound 0.03 µM, partner dose 10 µM) | 13.8% | 7.52% | 71.6% |
| N#CC[C@H](C1CCCC1)n1cc(-c2ncnc3[nH]ccc23)cn1 [ruxolitinib] + Nc1ccn([C@@H]2O[C@H](CO)[C@@H](O)C2(F)F)c(=O)n1 [gemcitabine] (first compound 5 µM, partner dose 0.002 µM) | 83.5% |  | 104% |
| N#CC[C@H](C1CCCC1)n1cc(-c2ncnc3[nH]ccc23)cn1 [ruxolitinib] + Cn1c(Nc2ccc(C(F)(F)F)cc2)nc2cc(Oc3ccnc(-c4ncc(C(F)(F)F)[nH]4)c3)ccc21 [CHIR265] (first compound 5 µM, partner dose 0.4 µM) | 57.5% | 41.7% | 94.2% |
| N#CC[C@H](C1CCCC1)n1cc(-c2ncnc3[nH]ccc23)cn1 [ruxolitinib] + CC(=O)c1c(C)c2cnc(Nc3ccc(N4CCNCC4)cn3)nc2n(C2CCCC2)c1=O [palbociclib] (first compound 5 µM, partner dose 0.2 µM) | 63.4% | 70.1% | 97.1% |
| N#CC[C@H](C1CCCC1)n1cc(-c2ncnc3[nH]ccc23)cn1 [ruxolitinib] + Nc1cccc2c1CN(C1CCC(=O)NC1=O)C2=O [lenalidomide] (first compound 5 µM, partner dose 5 µM) | 99.3% | 73.8% | 144% |
